Results taken from paper PMC5062966 (Nucleic Acids Research, 2016).

Target: His-hTERT fusion protein (human, UniProt O14746)
Test: pull-down

B1: GST-Sp1 fusion protein (natural protein)
chain: MSDQDHSMDEMTAVVKIEKGVGGNNGGNGNGGGAFSQARSSSTGSSSSTGGGGQESQPSPLALLAATCSRIESPNENSNNSQGPSQSGGTGELDLTATQLSQGANGWQIISSSSGATPTSKEQSGSSTNGSNGSESSKNRTVSGGQYVVAAAPNLQNQQVLTGLPGVMPNIQYQVIPQFQTVDGQQLQFAATGAQVQQDGSGQIQIIPGANQQIITNRGSGGNIIAAMPNLLQQAVPLQGLANNVLSGQTQYVTNVPVALNGNITLLPVNSVSAATLTPSSQAVTISSSGSQESGSQPVTSGTTISSASLVSSQASSSSFFTNANSYSTTTTTSNMGIMNFTTSGSSGTNSQGQTPQRVSGLQGSDALNIQQNQTSGGSLQAGQQKEGEQNQQTQQQQILIQPQLVQGGQALQALQAAPLSGQTFTTQAISQETLQNLQLQAVPNSGPIIIRTPTVGPNGQVSWQTLQLQNLQVQNPQAQTITLAPMQGVSLGQT[about 120 residues left out here]DSEGRGSGDPGKKKQ[about 80 residues left out here]QNKKGGPGVALSVGTLPLDSGAGSEGSGTATPSALITTNMVAMEAICPEGIARLANSGINVMQVADLQSINISGNGF
  binding result: binds
